The target of test [1] is T1, endogenous PABPN1 (human (endogenous in HEK293T)) (UniProt Q86U42).
T1 sequence: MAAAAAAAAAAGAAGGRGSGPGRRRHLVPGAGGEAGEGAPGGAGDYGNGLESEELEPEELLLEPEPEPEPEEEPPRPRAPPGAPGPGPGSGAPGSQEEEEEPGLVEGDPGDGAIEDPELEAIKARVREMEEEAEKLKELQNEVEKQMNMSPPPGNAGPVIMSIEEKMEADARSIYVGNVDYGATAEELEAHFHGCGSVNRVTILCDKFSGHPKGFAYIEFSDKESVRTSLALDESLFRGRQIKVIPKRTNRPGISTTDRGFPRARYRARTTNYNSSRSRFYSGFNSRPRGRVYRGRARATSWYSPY
The test is described as follows: co-IP; anti-PABPN1 IP from lysate of HEK293T cells transfected with Myc-QKI-6 or Flag-DsRed-tagged QKI-6 fragments; blot for the tagged QKI.

In test [2] the target is T1, endogenous PABPN1 (human (endogenous in HEK293T)). The test is described as follows: co-IP; IP of endogenous PABPN1, blot for endogenous QKI; with and without RNase treatment; cell line not stated.
Another test deals with T2, Myc-PABPN1-WT (UniProt Q86U42).
T2 sequence: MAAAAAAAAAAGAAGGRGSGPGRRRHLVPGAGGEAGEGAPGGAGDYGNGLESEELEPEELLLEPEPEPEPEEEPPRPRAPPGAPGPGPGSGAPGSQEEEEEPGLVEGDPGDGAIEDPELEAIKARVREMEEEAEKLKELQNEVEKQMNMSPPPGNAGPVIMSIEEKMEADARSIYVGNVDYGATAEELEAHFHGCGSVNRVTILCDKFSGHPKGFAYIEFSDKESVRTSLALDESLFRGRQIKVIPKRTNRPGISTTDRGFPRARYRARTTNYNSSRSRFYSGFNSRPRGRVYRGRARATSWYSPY
The test is described as follows: co-IP; anti-Myc IP from lysate of HEK293T cells overexpressing Myc-PABPN1-WT or Myc-PABPN1-AP; blot for endogenous QKI.

The target in test [3] is T3, PABPN1 fused at its C-terminus to split Venus (Myc-PABPN1-VN173 and Flag-PABPN1-VC155), Q86U42.
T3 chain: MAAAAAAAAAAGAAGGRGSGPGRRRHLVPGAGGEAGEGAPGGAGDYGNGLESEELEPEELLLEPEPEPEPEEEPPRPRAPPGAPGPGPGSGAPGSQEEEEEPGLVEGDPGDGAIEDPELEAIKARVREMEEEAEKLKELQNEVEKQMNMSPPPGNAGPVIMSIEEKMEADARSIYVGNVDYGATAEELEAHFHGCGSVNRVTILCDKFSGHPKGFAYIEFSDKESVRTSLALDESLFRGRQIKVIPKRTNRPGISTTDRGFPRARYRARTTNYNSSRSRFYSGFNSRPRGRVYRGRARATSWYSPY
The test is described as follows: split reporter; Venus BiFC (VN173 and VC155 at the C-terminus of PABPN1) in HEK293T cells, 24 h after transfection, fixed, confocal microscopy. As to conditions: remark: other sources report otherwise.

In the next test the target is T4, Myc-QKI-6 (UniProt Q96PU8).
T4 sequence: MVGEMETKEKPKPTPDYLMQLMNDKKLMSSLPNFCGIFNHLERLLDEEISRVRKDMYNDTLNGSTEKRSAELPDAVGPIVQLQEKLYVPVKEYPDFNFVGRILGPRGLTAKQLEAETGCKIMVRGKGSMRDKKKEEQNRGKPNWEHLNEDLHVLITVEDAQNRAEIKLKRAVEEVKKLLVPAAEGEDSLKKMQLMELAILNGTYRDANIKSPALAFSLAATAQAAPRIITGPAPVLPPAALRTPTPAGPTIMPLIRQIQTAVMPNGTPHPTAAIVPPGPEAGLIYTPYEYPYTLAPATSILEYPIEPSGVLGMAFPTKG
The test is described as follows: co-IP; anti-Myc IP from lysate of HEK293T cells overexpressing Myc-tagged QKI isoforms; blot for endogenous PABPN1.

The next test concerns the target T5, Myc-QKI-7 (UniProt Q96PU8).
T5 sequence: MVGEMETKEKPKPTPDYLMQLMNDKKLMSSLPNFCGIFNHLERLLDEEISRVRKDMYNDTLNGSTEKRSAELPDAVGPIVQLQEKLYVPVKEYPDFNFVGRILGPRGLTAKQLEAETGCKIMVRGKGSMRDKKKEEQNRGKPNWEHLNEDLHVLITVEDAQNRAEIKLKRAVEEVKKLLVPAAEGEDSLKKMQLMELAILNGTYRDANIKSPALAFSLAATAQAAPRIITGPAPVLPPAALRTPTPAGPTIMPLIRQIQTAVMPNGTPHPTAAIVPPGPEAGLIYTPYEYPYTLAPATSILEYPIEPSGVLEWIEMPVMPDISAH
Described as above.

For the next test, the target named is T6, Myc-QKI-5 (UniProt Q96PU8).
T6 sequence: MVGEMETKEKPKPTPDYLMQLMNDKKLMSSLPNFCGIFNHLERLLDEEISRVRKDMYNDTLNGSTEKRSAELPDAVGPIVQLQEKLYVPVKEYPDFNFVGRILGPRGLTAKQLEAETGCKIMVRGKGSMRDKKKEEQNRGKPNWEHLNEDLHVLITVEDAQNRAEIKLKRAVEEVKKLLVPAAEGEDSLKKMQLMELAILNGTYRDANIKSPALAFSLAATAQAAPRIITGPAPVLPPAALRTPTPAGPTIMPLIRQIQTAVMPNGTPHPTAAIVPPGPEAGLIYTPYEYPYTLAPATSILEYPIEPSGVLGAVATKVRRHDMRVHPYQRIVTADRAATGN
The test is described as above.

Test [4] addresses T1, endogenous PABPN1 (human (endogenous in HEK293T)). The test is described as follows: co-IP; Myc-QKI-6-G118R and PABPN1 (Fig. 3H); antibody of the IP and cell line not stated.

These are yes or no findings as the source states them, for the method shown. Binding seen in cells or lysates may run through a third protein. Some results given as binding are weak or reduced against the parent protein; the word gives no strength. For some of these results: Tags and fused reporters may be left off the sequences shown.

B1: Flag-DsRed-QKI-6 ΔC&QUA1 (domain or fragment, UniProt Q96PU8-9 82-311)
chain: LQEKLYVPVKEYPDFNFVGRILGPRGLTAKQLEAETGCKIMVRGKGSMRDKKKEEQNRGKPNWEHLNEDLHVLITVEDAQNRAEIKLKRAVEEVKKLLVPAAEGEDSLKKMQLMELAILNGTYRDANIKSPALAFSLAATAQAAPRIITGPAPVLPPAALRTPTPAGPTIMPLIRQIQTAVMPNGTPHPTAAIVPPGPEAGLIYTPYEYPYTLAPATSILEYPIEPSGVL
Regarding B1, the binding result in test [1] is reported as “binds”.

B2: Flag-DsRed-QKI-6 ΔC&QUA2 (domain or fragment, UniProt Q96PU8-9)
chain: MVGEMETKEKPKPTPDYLMQLMNDKKLMSSLPNFCGIFNHLERLLDEEISRVRKDMYNDTLNGSTEKRSAELPDAVGPIVQLQEKLYVPVKEYPDFNFVGRILGPRGLTAKQLEAETGCKIMVRGKGSMRDKKKEEQNRGKPNWEHLNEDLHVLITVEDAQNRAEIKLKRAVEEVKKLLVPDANIKSPALAFSLAATAQAAPRIITGPAPVLPPAALRTPTPAGPTIMPLIRQIQTAVMPNGTPHPTAAIVPPGPEAGLIYTPYEYPYTLAPATSILEYPIEPSGVL
As for B2, the binding result in test [1] is given as “binds”.

B3: endogenous QKI (protein, UniProt Q96PU8 1-341)
chain: MVGEMETKEKPKPTPDYLMQLMNDKKLMSSLPNFCGIFNHLERLLDEEISRVRKDMYNDTLNGSTEKRSAELPDAVGPIVQLQEKLYVPVKEYPDFNFVGRILGPRGLTAKQLEAETGCKIMVRGKGSMRDKKKEEQNRGKPNWEHLNEDLHVLITVEDAQNRAEIKLKRAVEEVKKLLVPAAEGEDSLKKMQLMELAILNGTYRDANIKSPALAFSLAATAQAAPRIITGPAPVLPPAALRTPTPAGPTIMPLIRQIQTAVMPNGTPHPTAAIVPPGPEAGLIYTPYEYPYTLAPATSILEYPIEPSGVLGAVATKVRRHDMRVHPYQRIVTADRAATGN
As for B3, the binding result (in test [2]; with Myc-PABPN1-WT) was “binds” each time.

B4: Flag-DsRed-QKI-6 ΔC (domain or fragment, UniProt Q96PU8-9 1-311)
chain: MVGEMETKEKPKPTPDYLMQLMNDKKLMSSLPNFCGIFNHLERLLDEEISRVRKDMYNDTLNGSTEKRSAELPDAVGPIVQLQEKLYVPVKEYPDFNFVGRILGPRGLTAKQLEAETGCKIMVRGKGSMRDKKKEEQNRGKPNWEHLNEDLHVLITVEDAQNRAEIKLKRAVEEVKKLLVPAAEGEDSLKKMQLMELAILNGTYRDANIKSPALAFSLAATAQAAPRIITGPAPVLPPAALRTPTPAGPTIMPLIRQIQTAVMPNGTPHPTAAIVPPGPEAGLIYTPYEYPYTLAPATSILEYPIEPSGVL
Take B4: in test [1], the binding entry was “binds”.

B5: Flag-DsRed-QKI-6 ΔC&PY-rich (domain or fragment, UniProt Q96PU8-9 1-205)
chain: MVGEMETKEKPKPTPDYLMQLMNDKKLMSSLPNFCGIFNHLERLLDEEISRVRKDMYNDTLNGSTEKRSAELPDAVGPIVQLQEKLYVPVKEYPDFNFVGRILGPRGLTAKQLEAETGCKIMVRGKGSMRDKKKEEQNRGKPNWEHLNEDLHVLITVEDAQNRAEIKLKRAVEEVKKLLVPAAEGEDSLKKMQLMELAILNGTYR
For the molecule B5, the binding result in test [1] is given as “binds”.

B6: Flag-DsRed-QKI-6 ΔC&KH (domain or fragment, UniProt Q96PU8-9)
chain: MVGEMETKEKPKPTPDYLMQLMNDKKLMSSLPNFCGIFNHLERLLDEEISRVRKDMYNDTLNGSTEKRSAELPDAVGPIVQAAEGEDSLKKMQLMELAILNGTYRDANIKSPALAFSLAATAQAAPRIITGPAPVLPPAALRTPTPAGPTIMPLIRQIQTAVMPNGTPHPTAAIVPPGPEAGLIYTPYEYPYTLAPATSILEYPIEPSGVL
As for B6, the binding entry in test [1] was “no binding”.

B7: PABPN1 fused at its C-terminus to split Venus (Myc-PABPN1-VN173 and Flag-PABPN1-VC155), Q86U42 1-306 (protein)
chain: MAAAAAAAAAAGAAGGRGSGPGRRRHLVPGAGGEAGEGAPGGAGDYGNGLESEELEPEELLLEPEPEPEPEEEPPRPRAPPGAPGPGPGSGAPGSQEEEEEPGLVEGDPGDGAIEDPELEAIKARVREMEEEAEKLKELQNEVEKQMNMSPPPGNAGPVIMSIEEKMEADARSIYVGNVDYGATAEELEAHFHGCGSVNRVTILCDKFSGHPKGFAYIEFSDKESVRTSLALDESLFRGRQIKVIPKRTNRPGISTTDRGFPRARYRARTTNYNSSRSRFYSGFNSRPRGRVYRGRARATSWYSPY
With B7, in test [3], the binding result is recorded as “binds”.

B8: endogenous PABPN1 (protein, UniProt Q86U42 1-306)
chain: MAAAAAAAAAAGAAGGRGSGPGRRRHLVPGAGGEAGEGAPGGAGDYGNGLESEELEPEELLLEPEPEPEPEEEPPRPRAPPGAPGPGPGSGAPGSQEEEEEPGLVEGDPGDGAIEDPELEAIKARVREMEEEAEKLKELQNEVEKQMNMSPPPGNAGPVIMSIEEKMEADARSIYVGNVDYGATAEELEAHFHGCGSVNRVTILCDKFSGHPKGFAYIEFSDKESVRTSLALDESLFRGRQIKVIPKRTNRPGISTTDRGFPRARYRARTTNYNSSRSRFYSGFNSRPRGRVYRGRARATSWYSPY
In the case of B8, the binding entry in the test with Myc-QKI-6, with Myc-QKI-7 and with Myc-QKI-5 was “binds” throughout.

B9: Myc-QKI-6-G118R (protein, UniProt Q96PU8-9 1-319)
chain: MVGEMETKEKPKPTPDYLMQLMNDKKLMSSLPNFCGIFNHLERLLDEEISRVRKDMYNDTLNGSTEKRSAELPDAVGPIVQLQEKLYVPVKEYPDFNFVGRILGPRGLTAKQLEAETRCKIMVRGKGSMRDKKKEEQNRGKPNWEHLNEDLHVLITVEDAQNRAEIKLKRAVEEVKKLLVPAAEGEDSLKKMQLMELAILNGTYRDANIKSPALAFSLAATAQAAPRIITGPAPVLPPAALRTPTPAGPTIMPLIRQIQTAVMPNGTPHPTAAIVPPGPEAGLIYTPYEYPYTLAPATSILEYPIEPSGVLGMAFPTKG
In the case of B9, the binding result in test [4] was “binds weakly”.

B10: Myc-QKI-6 (protein, UniProt Q96PU8-9 1-319)
chain: MVGEMETKEKPKPTPDYLMQLMNDKKLMSSLPNFCGIFNHLERLLDEEISRVRKDMYNDTLNGSTEKRSAELPDAVGPIVQLQEKLYVPVKEYPDFNFVGRILGPRGLTAKQLEAETGCKIMVRGKGSMRDKKKEEQNRGKPNWEHLNEDLHVLITVEDAQNRAEIKLKRAVEEVKKLLVPAAEGEDSLKKMQLMELAILNGTYRDANIKSPALAFSLAATAQAAPRIITGPAPVLPPAALRTPTPAGPTIMPLIRQIQTAVMPNGTPHPTAAIVPPGPEAGLIYTPYEYPYTLAPATSILEYPIEPSGVLGMAFPTKG
Take B10: the binding result in test [1] is on record as “binds”.

Values taken from publication PMC12275093.
